Source: patent publication US20240294594A1 (CYTUNE PHARMA, published 2024)
Residue numbers refer to the chain shown, from its start. Names may count otherwise.

B1: PEM-RLI NA x1 (other)
heavy 1: QVQLVQSGVEVKKPGASVKVSCKASGYTFTNYYMYWVRQAPGQGLEWMGGINPSNGGTNFNEKFKNRVTLTTDSSTTTAYMELKSLQFDDTAVYYCARRDYRFDMGFDYWGQGTTVTVSSASTKGPSVFPLAPCSRSTSESTAALGCLVKDYFPEPVTVSWNSGALTSGVHTFPAVLQSSGLYSLSSVVTVPSSSLGTKTYTCNVDHKPSNTKVDKRV[not shown - human IgG4 Fc with S228P T366W (EU numbers)]ITCPPPMSVEHADIWVKSYSLYSRERYICNSGFKRKAGTSSLTECVLNKATNVAHWTTPSLKCIRDPALVHQRPAPPSGGSGGGGSGGGSGGGGSGGNWVNVISDLKKIEDLIQSMHIDATLYTESDVHPSCKVTAMKCFLLELQVISLESGDASIHDTVEALIILANNSLSSNAQVTESGCKECEELEEKNIKEFLQSFVHIVQMFINTS
heavy 2: QVQLVQSGVEVKKPGASVKVSCKASGYTFTNYYMYWVRQAPGQGLEWMGGINPSNGGTNFNEKFKNRVTLTTDSSTTTAYMELKSLQFDDTAVYYCARRDYRFDMGFDYWGQGTTVTVSSASTKGPSVFPLAPCSRSTSESTAALGCLVKDYFPEPVTVSWNSGALTSGVHTFPAVLQSSGLYSLSSVVTVPSSSLGTKTYTCNVDHKPSNTKVDKRVESKYGPPCPPCPAPEFLGGPSVFLFPPKPKDTLMISRTPEVTCVVVDVSQEDPEVQFNWYVDGVEVHNAKTKPREEQFNSTYRVVSVLTVLHQDWLNGKEYKCKVSNKGLPSSIEKTISKAKGQPREPQVYTLPPSQEEMTKNQVSLSCAVKGFYPSDIAVEWESNGQPENNYKTTPPVLDSDGSFFLVSRLTVDKSRWQEGNVFSCSVMHEALHNHYTQKSLSLSLG
light: EIVLTQSPATLSLSPGERATLSCRASKGVSTSGYSYLHWYQQKPGQAPRLLIYLASYLESGVPARFSGSGSGTDFTLTISSLEPEDFAVYYCQHSRDLPLTFGGGTKVEIKRTVAAPSVFIFPPSDEQLKSGTASVVCLLNNFYPREAKVQWKVDNALQSGNSQESVTEQDSKDSTYSLSSTLTLSKADYEKHKVYACEVTHQGLSSPVTKSFNRGEC
B2: PEM-RLI NQD x1 (other)
heavy 1: QVQLVQSGVEVKKPGASVKVSCKASGYTFTNYYMYWVRQAPGQGLEWMGGINPSNGGTNFNEKFKNRVTLTTDSSTTTAYMELKSLQFDDTAVYYCARRDYRFDMGFDYWGQGTTVTVSSASTKGPSVFPLAPCSRSTSESTAALGCLVKDYFPEPVTVSWNSGALTSGVHTFPAVLQSSGLYSLSSVVTVPSSSLGTKTYTCNVDHKPSNTKVDKRV[not shown - human IgG4 Fc with S228P T366W (EU numbers)]ITCPPPMSVEHADIWVKSYSLYSRERYICNSGFKRKAGTSSLTECVLNKATNVAHWTTPSLKCIRDPALVHQRPAPPSGGSGGGGSGGGSGGGGSGGNWVNVISDLKKIEDLIQSMHIDATLYTESNVHPSCKVTAMKCFLLELQVISLESGDASIHDTVQDLIILANNSLSSNAQVTESGCKECEELEEKNIKEFLQSFVHIVQMFINTS
heavy 2: B1 heavy 2
light: B1 light
B3: SOT201 (other)
heavy 1: QVQLVQSGVEVKKPGASVKVSCKASGYTFTNYYMYWVRQAPGQGLEWMGGINPSNGGTNFNEKFKNRVTLTTDSSTTTAYMELKSLQFDDTAVYYCARRDYRFDMGFDYWGQGTTVTVSSASTKGPSVFPLAPCSRSTSESTAALGCLVKDYFPEPVTVSWNSGALTSGVHTFPAVLQSSGLYSLSSVVTVPSSSLGTKTYTCNVDHKPSNTKVDKRV[not shown - human IgG4 Fc with S228P L235E T366W (EU numbers)]ITCPPPMSVEHADIWVKSYSLYSRERYICNSGFKRKAGTSSLTECVLNKATNVAHWTTPSLKCIRDPALVHQRPAPPSGGSGGGGSGGGSGGGGSGGNWVNVISDLKKIEDLIQSMHIDATLYTESDVHPSCKVTAMKCFLLELQVISLESGDASIHDTVEALIILANNSLSSNAQVTESGCKECEELEEKNIKEFLQSFVHIVQMFINTS
heavy 2: B1 heavy 2 with L235E
light: B1 light
notes: Heterodimeric immunocytokine derived from IgG4 pembrolizumab (KiH, L235E, dK) with RLI-15AQA on the knob heavy chain; also called PEM L-RLI NA x1; PEM-RLI-15AQA
B4: hCl1a IE-RLI DANA (other)
heavy 1: QVQLVQSGAEVKKPGASVKVSCKASGYTFTDYAMHWVRQAPGQRLEWMGWINTYTGKPTYAQKFQGRVTITRDTSASTAYMELSSLRSEDTAVYYCARAVFYGYTMDAWGQGTLVTVSSASTKGPSVFPLAPSSKSTSGGTAALGCLVKDYFPEPVTVSWNSGALTSGVHTFPAVLQSSGLYSLSSVVTVPSSSLGTQTYICNVNHKPSNTKVDKKVEPKSCDKTHTCPPCPAPELLGGPSVFLFPPKPKDTLMISRTPEVTCVVIDVSHEDPEVKFNWYVDGVEVHNAKTKPREEQYNSTYRVVSVLTVLHQDWLNGKEYKCKVSNKALPAPEEKTISKAKGQPREPQVYTLPPSRDELTKNQVSLWCLVKGFYPSDIAVEWESNGQPENNYKTTPPVLDSDGSFFLYSKLTVDKSRWQQGNVFSCSVMHEALHNHYTQKSLSLSPGITCPPPMSVEHADIWVKSYSLYSRERYICNSGFKRKAGTSSLTECVLNKATNVAHWTTPSLKCIRDPALVHQRPAPPSGGSGGGGSGGGSGGGGSGGNWVNVISDLKKIEDLIQSMHIDATLYTESDVHPSCKVTAMKCFLLELQVISLESGDASIHATVEALIILANNSLSSNAQVTESGCKECEELEEKNIKEFLQSFVHIVQMFINTS
heavy 2: QVQLVQSGAEVKKPGASVKVSCKASGYTFTDYAMHWVRQAPGQRLEWMGWINTYTGKPTYAQKFQGRVTITRDTSASTAYMELSSLRSEDTAVYYCARAVFYGYTMDAWGQGTLVTVSSASTKGPSVFPLAPSSKSTSGGTAALGCLVKDYFPEPVTVSWNSGALTSGVHTFPAVLQSSGLYSLSSVVTVPSSSLGTQTYICNVNHKPSNTKVDKKV[not shown - human IgG1 Fc with V264I I332E T366S L368A Y407V (EU numbers)]
light: DIQMTQSPSSLSASVGDRVTITCRASEDIYSNLAWYQQKPGKAPKLLIFSVKRLQDGVPSRFSGSGSGTDFTLTISSLQPEDFATYYCLQGSNFPLTFGQGTKVEIKRTVAAPSVFIFPPSDEQLKSGTASVVCLLNNFYPREAKVQWKVDNALQSGNSQESVTEQDSKDSTYSLSSTLTLSKADYEKHKVYACEVTHQGLSSPVTKSFNRGEC
notes: Immunocytokine
B5: hCl1a TL-RLI DANA (other)
heavy 1: B4 heavy 1 with I266V, E334I, K394T, P398L
heavy 2: QVQLVQSGAEVKKPGASVKVSCKASGYTFTDYAMHWVRQAPGQRLEWMGWINTYTGKPTYAQKFQGRVTITRDTSASTAYMELSSLRSEDTAVYYCARAVFYGYTMDAWGQGTLVTVSSASTKGPSVFPLAPSSKSTSGGTAALGCLVKDYFPEPVTVSWNSGALTSGVHTFPAVLQSSGLYSLSSVVTVPSSSLGTQTYICNVNHKPSNTKVDKKV[not shown - human IgG1 Fc with T366S L368A K392T P396L Y407V (EU numbers)]
light: B4 light
notes: Immunocytokine

Assays:
[1] = target: T1, PD-1 (on PD-1 Effector Cells of the Promega PD-1/PD-L1 Blockade Bioassay) (UniProt Q15116 25-288, limits assumed); assay: cell-based or functional assay
IL-2/IL-15Rβγ (on cells) [2] = target: T2, IL-2/IL-15Rβγ (on cells) (UniProt P14784 27-551; P31785 23-369, limits assumed); assay: cell-based or functional assay
T2 sequence (looked up) 1: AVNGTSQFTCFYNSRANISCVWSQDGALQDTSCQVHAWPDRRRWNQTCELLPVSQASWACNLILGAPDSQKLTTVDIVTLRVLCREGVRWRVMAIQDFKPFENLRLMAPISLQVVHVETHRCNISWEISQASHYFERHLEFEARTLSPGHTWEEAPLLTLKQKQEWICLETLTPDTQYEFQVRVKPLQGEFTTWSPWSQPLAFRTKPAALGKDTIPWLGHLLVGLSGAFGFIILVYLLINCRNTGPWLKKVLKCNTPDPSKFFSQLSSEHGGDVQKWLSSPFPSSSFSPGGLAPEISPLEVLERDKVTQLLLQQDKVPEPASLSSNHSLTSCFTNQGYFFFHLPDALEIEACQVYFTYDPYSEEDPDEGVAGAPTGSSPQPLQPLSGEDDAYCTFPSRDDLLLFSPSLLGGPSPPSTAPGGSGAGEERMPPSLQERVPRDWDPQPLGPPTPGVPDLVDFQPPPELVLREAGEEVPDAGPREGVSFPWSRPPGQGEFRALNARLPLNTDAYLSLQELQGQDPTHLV
T2 sequence (looked up) 2: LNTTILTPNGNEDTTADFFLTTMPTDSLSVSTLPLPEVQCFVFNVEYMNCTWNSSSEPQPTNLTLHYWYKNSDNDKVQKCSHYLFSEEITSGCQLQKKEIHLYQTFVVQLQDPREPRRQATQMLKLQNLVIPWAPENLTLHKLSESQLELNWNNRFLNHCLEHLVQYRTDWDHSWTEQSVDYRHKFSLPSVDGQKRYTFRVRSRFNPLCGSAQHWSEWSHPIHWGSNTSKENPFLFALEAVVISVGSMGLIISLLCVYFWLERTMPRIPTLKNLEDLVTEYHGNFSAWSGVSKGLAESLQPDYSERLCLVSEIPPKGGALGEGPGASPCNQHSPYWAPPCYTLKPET

[3] = target: T1, PD-1 (on PD-1 Effector Cells of the …); assay: cell-based or functional assay; remark: listed apart in the source
IL-2/IL-15Rβγ (on cells) [4] = target: T2, IL-2/IL-15Rβγ (on cells); assay: cell-based or functional assay; remark: listed apart in the source
[5] = target: T3, PD-1 (target implied for the KD values of Table 32) (UniProt Q15116 in part, limits assumed); assay: method not described; 4° C. binding, 4 h
[6] = target: T3, PD-1 (target implied for the KD values …); assay: method not described; 37° C. binding, 1 h
[7] = target: T3, PD-1 (target implied for the KD values …); assay: method not described; 37° C. binding, 4 h
FcγRIIIa V158 [8] = target: T4, FcγRIIIa V158 (human, UniProt P08637 in part, limits assumed); assay: SPR (Biacore 8K), ratio of 1/Kd values
T4 construct: also called hFcγRIIIaV158; CD16a V158
Method: (§1) SPR experiments were performed on a Biacore 8K (Cytiva, Chicago, IL, USA), using CM5 sensor chips (Cytiva) with an immobilization using THE His tag antibodies (Genscript). FcγRIIIa V158, FcγRIIIa F158 or FcγRIIb protein were used for capture with a contact time of 30 sec at a flow rate of […] in a 1×HBS-EP+ running buffer. Association/dissociation rates were measured for each tested immunocytokine at a flow rate of 30 μl/min with concentration serial dilution in a suitable range with an association time/dissociation time of 300 s/300 s except for constructs with DLE and DE with and without afucosylation, where association/dissociation time of 120 s/1200 s was applied.

FcγRIIIa F158 [9] = target: T5, FcγRIIIa F158 (human, UniProt P08637 in part, limits assumed); assay: SPR (Biacore 8K), ratio of 1/Kd values
T5 construct: also called hFcγRIIIaF158; CD16a F158
Method: as §1

FcγRIIIa V158 [10] = target: T4, FcγRIIIa V158; assay: SPR (Biacore 8K), receptor captured via anti-His antibody
Method: as §1

FcγRIIIa F158 [11] = target: T5, FcγRIIIa F158; assay: as above
Method: as §1

FcγRIIb = target: T6, FcγRIIb (UniProt P31994 46-217, limits assumed); assay: as above
T6 construct: also called FcgRIIb
T6 sequence (looked up): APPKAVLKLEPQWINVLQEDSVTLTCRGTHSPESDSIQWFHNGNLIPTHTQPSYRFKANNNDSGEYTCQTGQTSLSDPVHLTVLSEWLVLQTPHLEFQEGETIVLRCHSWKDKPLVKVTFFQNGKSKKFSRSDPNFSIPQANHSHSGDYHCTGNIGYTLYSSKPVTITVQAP
Method: as §1

T4 sequence (P08637 17-208 F176V limits assumed): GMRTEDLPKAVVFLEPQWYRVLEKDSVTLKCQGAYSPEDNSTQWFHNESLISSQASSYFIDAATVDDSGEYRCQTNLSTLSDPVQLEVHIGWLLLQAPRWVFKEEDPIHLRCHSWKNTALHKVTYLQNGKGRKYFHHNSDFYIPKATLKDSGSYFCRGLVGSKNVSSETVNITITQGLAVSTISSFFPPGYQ
T5 sequence (P08637 17-208 limits assumed): as the sequence (P08637 17-208 F176V limits assumed) above, with V160F counted along it

Binder | A/I (V158), affinity towards FcγRIIIa over affinity towards FcγRIIb (FcγRIIIa V158 [8]) [ratio] | A/I (F158), affinity towards FcγRIIIa over affinity towards FcγRIIb (FcγRIIIa F158 [9]) [ratio] | Kd (FcγRIIIa V158 [10]) [nM] | Kd (FcγRIIIa F158 [11]) [nM] | Kd (FcγRIIb) [nM] | further results
B1 |  |  |  |  |  | EC50 [pM], PD-1/PD-L1 Blockade Bioassay (Promega) [1]: 1380 pM
B2 |  |  |  |  |  | EC50 kit225 cells pM (IL-2/IL-15Rβγ (on cells) [2]): 21600 pM
B3 |  |  |  |  |  | EC50 [pM], Promega blocking assay [3]: 2770 pM; Relative potency vs Keytruda, Promega blocking assay [3]: 63.6%; EC50 (read off the curve), % Ki-67+ CD8+ T cells [CD8+ T cells] (IL-2/IL-15Rβγ (on cells) [4]): ~20 nM; EC50 (read off the curve), % Ki-67+ NK cells [NK cells] (IL-2/IL-15Rβγ (on cells) [4]): ~3 nM; Kd [5]: 0.26 nM; Kd [6]: 0.23 nM; Kd [7]: 0.21 nM
B4 | 151 | 54.7 | 24.4 | 67.3 | 3680 | 
B5 | 60.9 | 20.9 | 47.6 | 139 | 2900 | 
